# Screen size: about 310,000 compounds; about 2,200 (0.71%) showed an effect of 50% or more. Effects have a minus sign here. This is one part of the list.
# Molecular target: human ether-à-go-go-related gene (hERG) potassium channel (human, UniProt Q12809)
# Test: primary screen, population patch clamp on CHO cells stably expressing hERG
# Sequence of human ether-à-go-go-related gene (hERG) potassium channel (Q12809 whole entry, looked up): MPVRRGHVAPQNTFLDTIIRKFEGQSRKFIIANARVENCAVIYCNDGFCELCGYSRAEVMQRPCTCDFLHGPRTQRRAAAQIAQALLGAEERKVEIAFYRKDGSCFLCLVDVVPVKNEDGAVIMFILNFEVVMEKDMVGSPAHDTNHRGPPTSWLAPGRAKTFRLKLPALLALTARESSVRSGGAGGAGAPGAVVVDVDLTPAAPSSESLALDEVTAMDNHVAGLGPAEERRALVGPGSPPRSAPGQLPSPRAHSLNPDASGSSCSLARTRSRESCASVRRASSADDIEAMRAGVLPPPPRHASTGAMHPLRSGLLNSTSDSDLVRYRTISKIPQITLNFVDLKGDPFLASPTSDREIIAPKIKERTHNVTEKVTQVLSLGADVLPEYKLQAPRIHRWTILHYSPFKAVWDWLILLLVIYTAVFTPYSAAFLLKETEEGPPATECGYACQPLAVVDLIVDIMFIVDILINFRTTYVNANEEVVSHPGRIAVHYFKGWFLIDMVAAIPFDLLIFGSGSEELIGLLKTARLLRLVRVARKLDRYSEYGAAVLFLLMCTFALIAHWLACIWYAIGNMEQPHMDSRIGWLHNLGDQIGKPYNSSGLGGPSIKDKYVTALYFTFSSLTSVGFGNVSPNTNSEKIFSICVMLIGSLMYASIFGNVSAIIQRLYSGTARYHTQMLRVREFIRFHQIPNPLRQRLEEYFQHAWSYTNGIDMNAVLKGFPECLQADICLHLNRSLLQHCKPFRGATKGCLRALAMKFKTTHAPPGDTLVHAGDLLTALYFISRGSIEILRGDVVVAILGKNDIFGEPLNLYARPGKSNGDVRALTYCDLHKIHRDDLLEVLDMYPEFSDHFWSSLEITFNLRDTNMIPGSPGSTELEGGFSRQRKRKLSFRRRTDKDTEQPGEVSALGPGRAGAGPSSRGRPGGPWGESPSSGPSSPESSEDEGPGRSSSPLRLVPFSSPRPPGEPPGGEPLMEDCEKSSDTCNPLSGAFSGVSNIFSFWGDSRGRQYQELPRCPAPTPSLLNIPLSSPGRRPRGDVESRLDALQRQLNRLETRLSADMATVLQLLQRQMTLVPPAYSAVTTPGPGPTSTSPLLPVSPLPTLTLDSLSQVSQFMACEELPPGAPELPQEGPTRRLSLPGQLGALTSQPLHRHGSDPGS
row,Structure (SMILES),"hERG current change (%, negative = inhibition) at 1uM"
1,O=C(Nc1ccc2c(c1)OCCO2)c1ccco1,6.27%
2,Cc1ccc(S(=O)(=O)N2CCOCC2)cc1NC(=O)COC(=O)CNC(=O)c1ccc(C(C)(C)C)cc1,20.2%
3,COc1ccc(-c2nnc(SCC(=O)N3CCCc4ccccc43)o2)cc1OC,1.96%
4,O=C(O)Cn1nnc(-c2ccc(OCc3ccccc3Cl)cc2)n1,19.4%
5,CN(C)CCCNc1ccc(-c2n[nH]c(=O)c3ccccc23)cc1[N+](=O)[O-],13%
6,CC(=O)c1sc(NC(=O)CCCc2nc3ccccc3c(=O)[nH]2)nc1-c1ccccc1,12.2%
7,O=C(CCn1c(=S)[nH]c2ccccc2c1=O)NCCCN1CCOCC1,-0.109%
8,Cc1cccc(CN2CCN(C(=O)CCl)CC2)c1,7.13%
9,Cc1ccc2c(c1)C=CC(C)(C)S2=O (stereo not shown),14.8%
10,CC(C)CC(=O)Nc1cc2nn(-c3ccccc3)nc2cc1Cl,-0.947%
11,CCOC(=O)C1=C(C)Nc2nc(C)nn2C1c1ccc(OCC)c(OC)c1 (stereo not shown),11.4%
12,Cc1cnc(NC(=O)CSc2nnc(-c3ccc(Cl)cc3Cl)n2N)s1,-0.0109%
13,O=C(NCc1cccs1)C12CC3CC(CC(C3)C1)C2,13.3%
14,COc1ccccc1CN(C)C(=O)C(c1ccccc1)c1ccccc1,5.39%
15,O=C(Nc1ccc(N2CCCCC2)cc1)c1cncc(Br)c1,17.7%
16,C/C=C/C(=O)OCc1csc(CC(=O)Nc2ccccc2C)n1,10.5%
17,c1ccc(COn2c(-c3ccccc3)nc3c2CCc2nonc2-3)cc1,15.7%
18,COC(=O)C1CCN(S(=O)(=O)CCNC(=O)c2cccc(OC)c2)CC1,-1.58%
19,COc1cccc(NC(=O)COC(=O)CCOc2ccccc2OC)c1,2.42%
20,Cc1ccc(NC(=O)c2ccc(N3CCCC3=O)cc2)cc1S(=O)(=O)N1CCCCC1,5.81%
21,CN(C)S(=O)(=O)c1ccc(NC(=O)Cn2ccsc2=N)cc1,12.4%
22,Cc1ccc(NC(=O)c2sc3nc(N4CCOCC4)c4c(c3c2N)CC(C)(C)OC4)cc1,9.91%

row,Structure (SMILES),"hERG current change (%, negative = inhibition) at 1uM"
1,Cc1ccc(NS(=O)(=O)c2ccc(CCC(=O)NCCCOC(C)C)cc2)cc1,15.2%
2,O=C(NCc1ccncc1)C12CC3CC(CC(C3)C1)C2,5.26%
3,Cc1ccc(S(=O)(=O)N(C)C)cc1-n1c(SCC(=O)Nc2ccc(F)cc2Cl)nc2ccccc2c1=O,2.16%
4,c1ccc(OCc2noc(CN3CC[C@@H]4CCCC[C@H]4C3)n2)cc1,6.6%
5,O=C(NCC(c1cccnc1)N1CCN(c2ccc(F)cc2)CC1)c1ccco1 (stereo not shown),4.97%
6,OCCC1CN(Cc2cccnc2)CCN1CCc1ccccc1 (stereo not shown),1.79%
7,Cc1nnc(SCC(=O)Nc2cccc(Br)c2)s1,1.84%
8,COc1ccc(/C=C/C(=O)OCC(=O)NCc2ccco2)cc1OC,0.173%
9,Cn1c(NC(=O)C[n+]2cc(-c3ccc(F)cc3)n3c2CCC3)cc(=O)n(C)c1=O.[Cl-],2.56%
10,CCCOc1ccc(C2=NNC(=O)CC2)cc1,14%
11,O=C(CCn1cnc2ncccc2c1=O)N1CCN(c2cccc(Cl)c2)CC1,6.47%
12,CCOC(=O)c1c(C)[nH]c(C)c1C(=O)COC(=O)c1ccc(OC)c(OC)c1,7.01%
13,CC1CC1C(=O)OCC(=O)Nc1ccc2[nH]c(=O)[nH]c2c1 (stereo not shown),9.05%
14,C=CCC1(CC=C)CCCN1C(=O)C1CCC(=O)N(CCc2ccccc2)C1 (stereo not shown),2.74%
15,COc1ccccc1/C=N/NS(=O)(=O)c1ccccc1,12.7%
16,COc1ccc(C(CC(=O)Nc2ccc(C)cc2)NC(=O)C(F)(F)F)cc1 (stereo not shown),-0.507%
17,CCOC(=O)/C(=C/c1ccc(OC(=O)c2ccccc2)cc1)C(C)=O,7.36%
18,COc1cccc(/C=N/N=C(\N)c2nonc2N)c1O,13.8%
19,Cc1cc(N)nc(C)c1C#N,4.27%
20,O=C(NCCc1ccccc1)c1cc2ccccc2oc1=O,5.96%
21,NC(=O)C1CCN(C2=C(NS(=O)(=O)c3ccc(Br)cc3)C(=O)c3ccccc3C2=O)CC1,-22.5%
22,O=C(Nc1ccccc1)Nc1nnc(SCc2ccc(Cl)cc2)s1,11.9%

row,Structure (SMILES),"hERG current change (%, negative = inhibition) at 1uM"
1,O=C(COC(=O)c1ccncc1)c1ccccc1,11.1%
2,Cc1snc(S(=O)(=O)/C(C#N)=N/Nc2ccc(C(F)(F)F)cc2)c1C#N,22.5%
3,Cc1cc(C)cc(C(=O)Nc2c3c(nn2C(C)(C)C)CS(=O)(=O)C3)c1,7.45%
4,CCCOc1ccc(/C=N/n2nnnc2N)cc1OC,10.6%
5,COc1ccccc1NC(=O)c1ccc[n+]([O-])c1,15.7%
6,COCCCNC(=S)NC(=O)c1ccc(C)cc1,12%
7,Cc1ccc(-c2csc3ncnc(N4CCN(C)CC4)c23)cc1C,10.8%
8,CC(O)CO (stereo not shown),15.7%
9,Cc1ccc(C)c(Oc2cc(NC(=O)CCCn3nc(C)c([N+](=O)[O-])c3C)cc([N+](=O)[O-])c2)c1,9.35%
10,CCOC(=O)c1c(C)cc(C)[nH]c1=O,18.3%
11,COC(=O)C1=C(c2ccccc2OCc2ccccc2)C[C@@H]2CC[C@H]1N2C(=O)NCc1ccc(C(F)(F)F)cc1,12.8%
12,COCCCN1CCN(c2nnc3n2-c2sc(Br)cc2C(c2ccccc2Cl)=NC3)CC1.CS(=O)(=O)O,-11.9%
13,COC(=O)Nc1ccc(S(=O)(=O)Nc2cnc3ccccc3n2)cc1,18.1%
14,COc1cc(OC)c2c(-c3ccccc3)cc(=O)oc2c1C(CCN1CCCCC1)c1ccc(N(C)C)cc1 (stereo not shown),2.68%
15,CCCn1nc(C(=O)OCC(=O)NC(C)c2ccccc2)c2ccccc2c1=O (stereo not shown),16.3%
16,COc1ccc(O)c(C(c2c(C)[nH][nH]c2=O)c2c(C)[nH][nH]c2=O)c1,4.85%
17,Cc1[nH+]csc1CCOC(=O)c1cccc([N+](=O)[O-])c1.[Cl-],4.22%
18,CCN(Cc1nc2cc(Cl)ccc2c(=O)[nH]1)C(=O)c1nn(C)c(=O)c2ccccc12,3.93%
19,Cc1nc(NC(=O)c2ccccc2)sc1C1(C)CC(c2ccc(OC(F)(F)F)cc2)=NO1 (stereo not shown),13.5%
20,COc1cc(N=c2ssnc2Cl)cc(OC)c1OC,7.47%
21,CCOC(=O)Cn1nc(C)c(NC(=O)c2ccc(Br)o2)c1C,10.2%
22,CC(=O)Nc1cc2c(cc1NC(=O)Cn1nc(-c3ccc4c(c3)OCCO4)ccc1=O)OCCO2,6.94%

row,Structure (SMILES),"hERG current change (%, negative = inhibition) at 1uM"
1,CC1(C)O[C@@H]2C[C@H]3[C@@H]4C[C@H](F)C5=CC(=O)C=C[C@]5(C)[C@@]4(F)[C@@H](O)C[C@]3(C)[C@]2(C(=O)CO)O1,17.2%
2,O=C(NCCCn1ccnc1)/C(=C\c1ccccc1F)NC(=O)c1ccccc1,-42.5%
3,Cc1ccc(NC(=O)NC(=O)CSc2nnc(-c3ccc(OC(F)F)cc3)n2N)c(C)c1,12.7%
4,COCCN(C(=O)c1csnn1)C(C(=O)NC1CCCCC1)c1ccc(Cl)cc1 (stereo not shown),10%
5,O=C(COC(=O)c1cc(Cl)ccc1O)NCC1CCCO1 (stereo not shown),13.1%
6,O=C(NC1CCCCC1)c1cc(-c2ccc(Cl)cc2)on1,-4.47%
7,COc1ccc(S(=O)(=O)Nc2ccccc2C(=O)NC(C)(C)C)cc1OC,-0.334%
8,Cc1ccc2c(c1)/C(=C/c1ccccc1C)C(=O)N2,16.9%
9,CCN1CCN(CC(=O)N2CCCC(C(=O)c3ccc(Oc4ccccc4)cc3)C2)CC1 (stereo not shown),-0.91%
10,Cc1nn(-c2ccccc2)c(Cl)c1/C=N/NC(=O)CNc1n[nH]c(=O)[nH]c1=O,6.87%
11,CC(C)Cn1c(N)c(C(=O)COC(=O)C2=COCCO2)c(=O)n(C)c1=O,11%
12,Cc1ccc(C(=O)OCC(=O)Nc2ccc(F)c(Cl)c2)o1,14.9%
13,O=C(NC(c1ccccc1)c1ccccc1)C1CCCO1 (stereo not shown),9.21%
14,O=C(CCCN1C(=O)/C(=C\c2cccs2)SC1=S)Nc1ccc(O)cc1C(=O)O,10.9%
15,Cc1ccsc1C(=O)Nc1ccc(OCc2ccccc2)cc1,15.7%
16,COc1cccc(C(=O)NC2CCN(CC(=O)NCc3ccccc3OC)CC2)c1,7.23%
17,COC(=O)Nc1ccc(=O)n(Cc2c(Cl)cccc2Cl)c1,12.2%
18,O=C(NNS(=O)(=O)c1ccc2ccccc2c1)c1cccs1,9.55%
19,O=C(NN=C1CCCCC1)c1ccccc1OCc1ccc(F)cc1,9.08%
20,COc1ccc2cc(C#N)c(SCC(=O)N3CCCC3)nc2c1,0.146%
21,CCC(C)NC(=O)c1cc(OC)c(OC)c(OC)c1 (stereo not shown),8.7%
22,O=[N+]([O-])c1ccc(O)c(P(=O)(c2ccccc2)c2ccccc2)c1,12.7%
